{
  "source": "the supplement of paper PMC9446081",
  "note": "About 220 (0.56%) of roughly 39,000 compounds showed activity. Some of the results follow.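 Further: static incubation at 37 °C against the wild-type strain, values averaged over two biological replicates.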",
  "data": [
    {"test_system": "Escherichia coli K-12 BW25113", "test": "relative growth (OD600 normalised to plate interquartile mean) (fraction); higher = less growth inhibition, active = 0.2 or less", "settings": "50 µM; LB; incubation time: overnight (16-24 h)", "values": [
      {"smiles": "C=CCN1C(=O)[C@@]2(O[C@@H](CCO)[C@H]([Si](C)(C)c3ccc(OC)cc3)[C@H]2C)c2cc(N3C(=O)c4cccc5cccc3c45)ccc21", "relative growth": "inactive: 1.06"},
      {"smiles": "COc1ccc(C#Cc2ccc3c(c2)[C@]2(C(=O)N3)[C@H](c3ccccc3OCCO)N3[C@H](c4ccccc4)[C@H](c4ccccc4)OC(=O)[C@H]3[C@@H]2C(=O)O)cc1", "relative growth": "inactive: 0.992"},
      {"smiles": "COc1ccc(S(=O)(=O)N(C)C[C@@H]2Oc3c(NC(=O)c4cc(C)nn4C)cccc3C(=O)N([C@H](C)CO)C[C@@H]2C)cc1", "relative growth": "inactive: 0.994"},
      {"smiles": "CN1CCN(C(=O)C[C@H]2CC[C@H]3[C@@H](COC[C@H](O)CN3C(=O)C3CC3)O2)CC1", "relative growth": "inactive: 0.924"},
      {"smiles": "C[C@H](CO)N1C[C@H](C)[C@@H](CN(C)Cc2ccc(Oc3ccccc3)cc2)Oc2ccc(NC(=O)c3ccncc3)cc2C1=O", "relative growth": "inactive: 0.976"},
      {"smiles": "C[C@H](O)C#Cc1cnc2c(c1)C(=O)N([C@@H](C)CO)C[C@H](C)[C@@H](CN(C)Cc1cncnc1)O2", "relative growth": "inactive: 0.997"},
      {"smiles": "C[C@H](CO)N1C[C@H](C)[C@H](CN(C)C(=O)Nc2ccc(C(F)(F)F)cc2)OCCCC[C@H](C)Oc2ccc(NC(=O)Nc3cccc4ccccc34)cc2C1=O", "relative growth": "inactive: 1.02"},
      {"smiles": "C[C@H](CO)N1C[C@H](C)[C@H](CN(C)S(=O)(=O)c2ccc(F)cc2)Oc2ncc(-c3cccc(C(=O)N(C)C)c3)cc2C1=O", "relative growth": "inactive: 0.967"},
      {"smiles": "C[C@H]1CN([C@@H](C)CO)C(=O)c2cccc(NS(=O)(=O)c3ccccc3)c2O[C@H]1CN(C)S(C)(=O)=O", "relative growth": "inactive: 0.967"},
      {"smiles": "COC(=O)C1=CO[C@@H](O[C@@H]2O[C@H](CO)[C@@H](O)[C@H](O)[C@H]2O)[C@@H]2[C@@H](C)[C@@H](O)C[C@H]12", "relative growth": "inactive: 0.98"},
      {"smiles": "CCc1nc(N)nc(N)c1-c1ccc(Cl)cc1", "relative growth": "inactive: 0.784"},
      {"smiles": "Cc1noc(C)c1NC(=O)Nc1ccc2c(c1)C(=O)N([C@H](C)CO)C[C@@H](C)[C@H](CN(C)Cc1ccc(C(=O)Nc3ccccc3N)cc1)O2", "relative growth": "inactive: 0.941"},
      {"smiles": "C[C@H]1CCCCO[C@H](CN(C)C(=O)Nc2ccccc2)[C@@H](C)CN([C@@H](C)CO)C(=O)c2cc(NC(=O)c3ccccc3)ccc2O1", "relative growth": "inactive: 1.03"},
      {"smiles": "C[C@H](CO)N1C[C@H](C)[C@@H](CN(C)S(=O)(=O)c2ccccc2)Oc2ccc(NS(=O)(=O)c3ccc(F)cc3)cc2C1=O", "relative growth": "inactive: 1"},
      {"smiles": "Nc1cc(Cl)ncn1", "relative growth": "inactive: 0.995"},
      {"smiles": "C[C@@H]1CCCCO[C@@H](CN(C)Cc2ccc(C(F)(F)F)cc2)[C@H](C)CN([C@@H](C)CO)C(=O)c2cc(NS(=O)(=O)c3ccc(Cl)cc3)ccc2O1", "relative growth": "inactive: 0.999"},
      {"smiles": "O=C(C[C@@H]1CC[C@@H]2[C@H](COC[C@@H](O)CN2S(=O)(=O)c2ccccc2)O1)N1CCc2ccccc2C1", "relative growth": "inactive: 0.979"},
      {"smiles": "COc1cccc(S(=O)(=O)N(C)C[C@H]2Oc3ncc(C#CCC(C)C)cc3C(=O)N([C@@H](C)CO)C[C@H]2C)c1", "relative growth": "inactive: 1.02"},
      {"smiles": "O=C(O)C1=C[C@@H](O)[C@@H](O)[C@H](O)C1", "relative growth": "inactive: 0.996"},
      {"smiles": "C[C@H](O)C(=O)Nc1c(I)c(C(=O)NC(CO)CO)c(I)c(C(=O)NC(CO)CO)c1I", "relative growth": "inactive: 0.998"},
      {"smiles": "C[C@H](CO)N1C[C@H](C)[C@@H](CN(C)C(=O)Nc2ccc(C(F)(F)F)cc2)Oc2ccc(NC(=O)Nc3ccc(F)cc3)cc2C1=O", "relative growth": "inactive: 1"},
      {"smiles": "C[C@H]1CN([C@@H](C)CO)C(=O)c2c(c3ccccc3n2C)-c2ccccc2CO[C@H]1CN(C)C(=O)Nc1cccc(Cl)c1Cl", "relative growth": "inactive: 1.01"},
      {"smiles": "C[C@H]1CCCCO[C@H](CN(C)C(=O)Cc2ccccc2)[C@@H](C)CN([C@@H](C)CO)C(=O)c2cc(NC(=O)Nc3ccccc3)ccc2O1", "relative growth": "inactive: 1.02"},
      {"smiles": "O=C(N[C@H]1CCS(=O)(=O)C1)N1CCCCC1", "relative growth": "inactive: 1"},
      {"smiles": "CCCc1nn(C)c2c(=O)[nH]c(-c3cc(S(=O)(=O)N4CCN(C)CC4)ccc3OCC)nc12.O=C(O)CC(O)(CC(=O)O)C(=O)O", "relative growth": "inactive: 0.963"},
      {"smiles": "C[C@@H]1CCCCO[C@@H](CN(C)Cc2ccc(C(F)(F)F)cc2)[C@H](C)CN([C@@H](C)CO)C(=O)c2cc(NC(=O)C3CCCCC3)ccc2O1", "relative growth": "inactive: 1.01"},
      {"smiles": "C[C@@H]1CN([C@H](C)CO)C(=O)c2cc(NC(=O)Nc3ccc4c(c3)OCO4)ccc2O[C@@H](C)CCCCO[C@@H]1CN(C)S(=O)(=O)c1ccccc1", "relative growth": "inactive: 1.05"},
      {"smiles": "C[C@H]1CN([C@@H](C)CO)C(=O)c2cccc(NC(=O)Nc3cccc4ccccc34)c2O[C@H]1CN(C)C(=O)Nc1cccc2ccccc12", "relative growth": "inactive: 1.04"},
      {"smiles": "Cc1noc(C)c1NC(=O)N(C)C[C@@H]1Oc2ccc(NC(=O)Nc3ccc(C(F)(F)F)cc3)cc2C(=O)N([C@@H](C)CO)C[C@H]1C", "relative growth": "inactive: 0.959"},
      {"smiles": "Cc1ccc2oc3c(c(=O)c2c1)[C@@]1(C(=O)N(Cc2ccccc2F)c2ccccc21)N(Cc1ccco1)C3=O", "relative growth": "inactive: 1.06"},
      {"smiles": "CC(C)(C)S(=O)N1Cc2cc(C(=O)Nc3ccc(-c4ccccc4)cc3)nc(-c3cccc(C#CCC4CCCC4)c3)c2[C@@H]1CCO", "note": "(some centres undefined)", "relative growth": "inactive: 1.03"},
      {"smiles": "C[C@H]1CN([C@@H](C)CO)C(=O)c2cccc(NC(=O)c3ccncc3)c2O[C@@H]1CN(C)Cc1ccc(-c2ccccc2)cc1", "relative growth": "inactive: 1.03"},
      {"smiles": "COc1ccc(S(=O)(=O)N[C@H]2C=C[C@@H](CC(=O)N3CCN(c4ccccc4)CC3)O[C@H]2CO)cc1", "relative growth": "inactive: 1"},
      {"smiles": "CN(CC(=O)NCc1ccccn1)S(=O)(=O)c1cc(Br)cnc1N", "relative growth": "inactive: 1.02"},
      {"smiles": "COCC#Cc1cnc2c(c1)C(=O)N([C@H](C)CO)C[C@@H](C)[C@H](CN(C)C(C)=O)O2", "relative growth": "inactive: 0.998"},
      {"smiles": "CC[C@@H](C)CCCC(=O)N[C@@H](CCN)C(=O)N[C@H](C(=O)N[C@@H](CCN)C(=O)N[C@H]1CCNC(=O)[C@H]([C@@H](C)O)NC(=O)[C@H](CCN)NC(=O)[C@H](CCN)NC(=O)[C@H](CC(C)C)NC(=O)[C@@H](CC(C)C)NC(=O)[C@H](CCN)NC1=O)[C@@H](C)O", "relative growth": "inactive: 0.262"},
      {"smiles": "COc1ccc(NC(=O)N(C)C[C@@H]2OCCCC[C@H](C)Oc3ccc(NS(=O)(=O)c4c(C)noc4C)cc3C(=O)N([C@@H](C)CO)C[C@H]2C)cc1", "relative growth": "inactive: 1.03"},
      {"smiles": "CN(C)/C=N/[C@@H]1N=C(C2CC2)N(C)C(=O)N1", "relative growth": "inactive: 0.989"},
      {"smiles": "C[C@@H]1CN([C@H](C)CO)C(=O)c2cc(-c3ccc(C(=O)N(C)C)cc3)cnc2O[C@@H]1CN(C)C(=O)CN(C)C", "relative growth": "inactive: 0.999"},
      {"smiles": "CCCC#Cc1cnc2c(c1)C(=O)N([C@H](C)CO)C[C@@H](C)[C@H](CN(C)S(=O)(=O)c1cn(C)cn1)O2", "relative growth": "inactive: 0.998"},
      {"smiles": "C/C=C/c1cnc2c(c1)C(=O)N([C@H](C)CO)C[C@@H](C)[C@@H](CN(C)S(=O)(=O)c1ccc(OC)cc1)O2", "relative growth": "inactive: 1.01"},
      {"smiles": "COc1ccc(S(=O)(=O)N[C@@H]2CC[C@@H](CCNC(=O)CN3CCOCC3)O[C@@H]2CO)cc1", "relative growth": "inactive: 0.973"},
      {"smiles": "CNC(=O)Cn1cc(Br)cn1", "relative growth": "inactive: 1.03"},
      {"smiles": "COc1ccc(S(=O)(=O)Nc2ccc3c(c2)C(=O)N([C@@H](C)CO)C[C@H](C)[C@@H](CN(C)Cc2ccc(Cl)c(Cl)c2)OCCCC[C@H](C)O3)cc1", "relative growth": "inactive: 0.991"},
      {"smiles": "C=C1CCC=C(C)CCC2C1CC2(C)C.O", "note": "(single isomer, unassigned; (-)) [(-)E-CARYOPHYLLENE hydrate]", "relative growth": "inactive: 1.06"},
      {"smiles": "C[C@H](CO)N1C[C@H](C)[C@H](CN(C)S(=O)(=O)c2ccc(F)cc2)Oc2ncc(-c3ccncc3)cc2C1=O", "relative growth": "inactive: 1.02"},
      {"smiles": "C[C@H](CO)N1C[C@H](C)[C@H](CN(C)C(=O)c2ccccn2)Oc2cc(C#Cc3ccc(F)cc3)ccc2S1(=O)=O", "relative growth": "inactive: 1.03"},
      {"smiles": "C[C@@H]1CCCCO[C@@H](CN(C)S(=O)(=O)c2cccs2)[C@@H](C)CN([C@H](C)CO)C(=O)c2cc(NC(=O)Nc3cccc4ccccc34)ccc2O1", "relative growth": "inactive: 1.01"},
      {"smiles": "C[N+](C)(C)CCCCCC[N+](C)(C)C.[Br-].[Br-]", "relative growth": "inactive: 0.862"},
      {"smiles": "CO[C@H]1CN(C)C(=O)c2cc(NC(C)=O)ccc2OC[C@H](C)N(S(=O)(=O)c2cn(C)cn2)C[C@@H]1C", "relative growth": "inactive: 0.993"},
      {"smiles": "C[C@H]1CN([C@@H](C)CO)C(=O)c2cc(NC(=O)CCCN(C)C)ccc2O[C@H]1CN(C)S(=O)(=O)c1ccccc1", "relative growth": "inactive: 1"},
      {"smiles": "O=C(C[C@H]1CC=CC[C@H](NC(=O)OCC2c3ccccc3-c3ccccc32)C(=O)OCCNC1=O)NCCO", "relative growth": "inactive: 1.03"},
      {"smiles": "CC(C)NC(=O)Nc1ccc2c(c1)C(=O)N([C@H](C)CO)C[C@@H](C)[C@H](CN(C)Cc1ccc(Cl)c(Cl)c1)OCCCC[C@@H](C)O2", "relative growth": "inactive: 1.02"},
      {"smiles": "CN1CCN(C(=O)C[C@@H]2CC[C@H]3[C@@H](COC[C@@H](O)CN3Cc3ccc4c(c3)OCO4)O2)CC1", "relative growth": "inactive: 0.988"},
      {"smiles": "O=C(NCc1nc2ccccc2[nH]1)C1=C[C@@H](c2ccc(Br)cc2)C[C@@H](OCc2ccc(CO)cc2)O1", "relative growth": "inactive: 0.992"},
      {"smiles": "CC(C)NC(=O)N(C)C[C@H]1Oc2ccc(NS(=O)(=O)c3cccs3)cc2CC(=O)N([C@@H](C)CO)C[C@H]1C", "relative growth": "inactive: 1.03"},
      {"smiles": "C[C@H](CO)N1C[C@H](C)[C@H](CN(C)C(=O)c2ccc3c(c2)OCO3)Oc2cc(C#Cc3ccccc3F)ccc2S1(=O)=O", "relative growth": "inactive: 1.02"},
      {"smiles": "Cn1c(=O)[nH]c(=O)c2c1nc(N1CCN(CC(N)=O)CC1)n2C/C=C/c1ccccc1", "relative growth": "inactive: 0.988"},
      {"smiles": "CCOC(=O)C1=C(C)NC(c2ccccc2)=C(C(=O)OCc2ccc([N+](=O)[O-])cc2)[C@@H]1C#Cc1ccccc1", "relative growth": "inactive: 1.04"}
    ]}
  ]
}
